These results are taken from the RNAGym collection of RNA variant scans (doi:10.1093/nar/gkz1192).

Read counts are not given, so values of variants with three or more changes are uncertain.

The labels stand for the following.
B1: CPEB3 Ribozyme (parent)
chain: UAACAGGGGGCCACAGCAGAAGCGUUCACGUCGCAGCCCCUGUCAGAUUCUGGUGAAUCUGCGAAUUCUGCUGUAUAUCUC

In the data set the parent is B1. Put plainly: self-cleavage, relative activity (ratio to wild type); higher = more cleavage; in vitro, sequencing. Summed up: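 Relative activity compares each variant's cleaved/total read fraction with that of the unmutated ribozyme. To get these fractions, barcoded CPEB3 ribozyme libraries from rounds of error-prone PCR were transcribed with T7 RNA polymerase for 5 hours at 37°C and then given 15 min of DNase I treatment before EDTA was added. The RNAs were reverse transcribed with template switching and sequenced on Illumina, and DNA sequencing linked barcodes to variants. A minimum of 5 reads applied, and three batches were averaged.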
Turning to UAACAGGGGGCCACAGCAGAAGCGUCCACGUCGCAGCCCCUGUCAGAUUCAGGUGAAUCUGCGAAUUCAGCUGUAUAUCUC [U26C U51A U69A], the self-cleavage is 0.19.

Take UAACAGGGGGCCACAGCAGAAGCGUCCACGUCGCAGCCCCUGUCAGAUCCUGGUGAAUCCGCGAAUUCUGCUGUAUAUCUC [U26C U49C U60C]: the self-cleavage amounted to 0.14.

Take UAACAGGGGGCCACAGCAGAAGCGUCCACGUCGCAGCCCCUGUCAGAUUCUGGAGAAUCUGCGAGUUCUGCUGUAUAUCUC [U26C U54A A65G]: the self-cleavage was 0.18.

With UAACAGGGGGCCACAGCAGAAGCGUCCACGUCGCAGCCCCUGUCAGACUCUGGUCAAUCUGCGAAUUCUGCUGUAUAUCUC [U26C U48C G55C], the self-cleavage was determined as 0.2.

Take UAACAGGGGGCCACAGCAGAAGCGUCCACGUCGCAGCCCCUGUCAGAUUCUGGGGAAUCUGCUAAUUCUGCUGUAUAUCUC [U26C U54G G63U]: the self-cleavage came to 0.41.

Regarding UAACAGGGGGCCACAGCAGAAGCGUCCACGUCGCAGCCCCUGUCAGAUUCCGGUGAAUCCGCGAAUUCUGCUGUAUAUCUC [U26C U51C U60C], the self-cleavage amounted to 0.24.

As to UAACAGGGGGCCACAGCAGAAGCGUCCACGUCGCAGCCCCUGUCAGAUCCUGGCGUAUCUGCGAAUUCUGCUGCAUAUCUC [U26C U49C U54C A56U U74C], the self-cleavage amounted to 0.15.

With UAACAGGGGGCCACAGCAGAAGCGUCCACGUCGCAGCCCCUGUCAGAUUCCGGUGAGUCAGCGAAUUCUGCUGUAAAUCUC [U26C U51C A57G U60A U76A], the self-cleavage was 0.19.

On to UAACAGGGGGCCACAGCAGAAGCGUCCACGUCGCAGCCCCUGUCAGACUCUGGUGAAUCCGCGAAUUCUGCUGUAUAUCUC [U26C U48C U60C], for which the self-cleavage turned out to be 0.23.

As for UAACAGGGGGCCACAGCAGAAGCGUCCACGUCGCAGCCCCUGUCAGAUCCUGGCGAAUCUACGAGUUCUGCAGUAUAUCUC [U26C U49C U54C G61A A65G U72A], the self-cleavage was 0.04.

Consider UAACAGGGGGCCACAGCAGAAGCGUCCACGUCGCAGCCCCUGUCAGACUCUGGUGAAUCUACGUAUUCUGCUGUACAUCUC [U26C U48C G61A A64U U76C], for which the self-cleavage was 0.25.

Turning to UAACAGGGGGCCACAGCAGAAGCGUCCACGUCGCAGCCCCUGUCAGAUCCUGGUGAAUCUGCGAAUCCUGCUGUAUAUCUC [U26C U49C U67C], the self-cleavage came out at 0.21.

UAACAGGGGGCCACAGCAGAAGCGUCCACGUCGCAGCCCCUGUCAGACUCUGGUGAAUCUGCGAAUACUGCUGCAUAUCUC [U26C U48C U67A U74C]: the self-cleavage is 0.24.

For UAACAGGGGGCCACAGCAGAAGCGUCCACGUCGCAGCCCCUGUCAGAUUCUGGCGAAUCAGCGAAUUCUGCUGUAUACCUC [U26C U54C U60A U78C], the self-cleavage is 0.41.

UAACAGGGGGCCACAGCAGAAGCGUCCACGUCGCAGCCCCUGUCAGAUCCCGGUGAAUCUGCGAAUUCUGCUGUAUAUCUC [U26C U49C U51C]: the self-cleavage stood at 0.21.

For UAACAGGGGGCCACAGCAGAAGCGUCCACGUCGCAGCCCCUGUCAGAUACUGGUGAAUCUGCGAAUUCUGCUGCAUAUCUC [U26C U49A U74C], the self-cleavage amounted to 0.45.

UAACAGGGGGCCACAGCAGAAGCGUCCACGUCGCAGCCCCUGUCAGAUUCUGGUGAACCUGCGAAUUCUGCUGUAUUUCUC [U26C U58C A77U]: the self-cleavage was 0.47.

With UAACAGGGGGCCACAGCAGAAGCGUCCACGUCGCAGCCCCUGUCAGAUUCCGGUGAAUCUGCGAACUCUGCUGUAUAUCUC [U26C U51C U66C], the self-cleavage is 0.15.

Consider UAACAGGGGGCCACAGCAGAAGCGUCCACGUCGCAGCCCCUGUCAGACACUGGUGAAUCAGCGAAUUCUGCUGUAUAUCUC [U26C U48C U49A U60A], for which the self-cleavage was determined as 0.14.

UAACAGGGGGCCACAGCAGAAGCGUCCACGUCGCAGCCCCUGUCAGAUACUGGUGAAUCUGCGAAUUCUGCUGUAUAUCUA [U26C U49A C81A]: the self-cleavage was determined as 0.29.

With UAACAGGGGGCCACAGCAGAAGCGUCCACGUCGCAGCCCCUGUCAGAUUCAGGUGAAUCUGCGAGUUCUGCUGUAGAUCUC [U26C U51A A65G U76G], the self-cleavage was 0.2.

Regarding UAACAGGGGGCCACAGCAGAAGCGUCCACGUCGCAGCCCCUGUCAGAUUCUGGCGAAUCCGCGAAUUCGGCUGUAUAUCUC [U26C U54C U60C U69G], the self-cleavage came out at 0.36.

On to UAACAGGGGGCCACAGCAGAAGCGUCCACGUCGCAGCCCCUGUCAGAUUCGGGUGAAUCUCCGAAUUCUGCUGUAUAUCUC [U26C U51G G61C], for which the self-cleavage is 0.14.

Regarding UAACAGGGGGCCACAGCAGAAGCGUCCACGUCGCAGCCCCUGUCAGAUUCUGGCGAAUCUGCGAGUUCUGCUGUACAUCUC [U26C U54C A65G U76C], the self-cleavage worked out at 0.32.

Consider UAACAGGGGGCCACAGCAGAAGCGUCCACGUCGCAGCCCCUGUCAGAUUCUGGAGAGUCUGCGAAUUCUGCUGUAUAUCUC [U26C U54A A57G], for which the self-cleavage came out at 0.43.

For the variant UAACAGGGGGCCACAGCAGAAGCGUCCACGUCGCAGCCCCUGUCAGAUUCUGGAGAUUCUGCGAAUUCUGCUGUAUAUCUC [U26C U54A A57U], the self-cleavage worked out at 0.14.

Regarding UAACAGGGGGCCACAGCAGAAGCGUCCACGUCGCAGCCCCUGUCAGAUUCGGGUGAAUCUGCGAAUCCUGCUGUUUAUCUC [U26C U51G U67C A75U], the self-cleavage amounted to 0.38.

With UAACAGGGGGCCACAGCAGAAGCGUCCACGUCGCAGCCCCUGUCAGAUUCUGGCGAAUCUGCGAAUUCUGCAGUAUGUCUC [U26C U54C U72A A77G], the self-cleavage was 0.49.

In the case of UAACAGGGGGCCACAGCAGAAGCGUCCACGUCGCAGCCCCUGUCAGAUCCUGGUGAAUCUGCGAUUUCUGCUGUAUAUCUC [U26C U49C A65U], the self-cleavage was 0.09.

As to UAACAGGGGGCCACAGCAGAAGCGUCCACGUCGCAGCCCCUGUCAGAUUCUGGAGAAUCUGCGAAUUCUGAUGUAUAUCUC [U26C U54A C71A], the self-cleavage was determined as 0.16.

With UAACAGGGGGCCACAGCAGAAGCGUCCACGUCGCAGCCCCUGUCAGAUUCAGGUGAGUACGCGAAUUCUGCCGUAUACCUC [U26C U51A A57G C59A U60C U72C U78C], the self-cleavage stood at 0.06.

Take UAACAGGGGGCCACAGCAGAAGCGUCCACGUCGCAGCCCCUGUCAGAUUCCGGUGAAUCUGCGGAUUCUGCUGUAUAUCUC [U26C U51C A64G]: the self-cleavage came out at 0.34.

Regarding UAACAGGGGGCCACAGCAGAAGCGUCCACGUCGCAGCCCCUGUCAGAUCCUGGUGGAUCUGCGAAUUCUACUGUAUAUCUC [U26C U49C A56G G70A], the self-cleavage stood at 0.16.

With UAACAGGGGGCCACAGCAGAAGCGUCCACGUCGCAGCCCCUGUCAGAUUCCCGCGAAUCUGCGAAUUCUGCAGUAUAUCUC [U26C U51C G52C U54C U72A], the self-cleavage is 0.17.
